Data taken from the supplement of paper PMC9174493.
The list shows a part of the results. Single values of this set are uncertain. Values with irradiation are relative to irradiated vehicle.

Experiments:
[1] = tested on: A549-Dual; assay: NF-kB reporter (SEAP) activity, viability-corrected, relative to vehicle (fold change vs vehicle); higher = more activation of STING-IRF / NF-kB immune response reporter
[2] = tested on: A549-Dual; assay: ISRE reporter (Lucia luciferase) activity, viability-corrected, relative to vehicle (fold change vs vehicle); higher = more activation of STING-IRF / NF-kB immune response reporter
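Throughout, for NF-kB reporter (SEAP) activity, viability-corrected, relative to vehicle: viability correction based on the alamar blue assay, with concentrations leaving 10% survival or less dropped.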

Structure (SMILES)	NF-kB reporter ([1]; 0.1 µM, irradiation: 8 Gy/4 fr)	NF-kB reporter ([1]; 0.1 µM, irradiation: none)	NF-kB reporter ([1]; 0.3 µM, irradiation: 8 Gy/4 fr)	NF-kB reporter ([1]; 0.3 µM, irradiation: none)	NF-kB reporter ([1]; 1 µM, irradiation: 8 Gy/4 fr)	NF-kB reporter ([1]; 1 µM, irradiation: none)	NF-kB reporter ([1]; 3 µM, irradiation: 8 Gy/4 fr)	NF-kB reporter ([1]; 3 µM, irradiation: none)	NF-kB reporter ([1]; 10 µM, irradiation: 8 Gy/4 fr)	NF-kB reporter ([1]; 10 µM, irradiation: none)	ISRE reporter ([2]; 0.1 µM, irradiation: 8 Gy/4 fr)	ISRE reporter ([2]; 0.1 µM, irradiation: none)	ISRE reporter ([2]; 0.3 µM, irradiation: 8 Gy/4 fr)	ISRE reporter ([2]; 0.3 µM, irradiation: none)	ISRE reporter ([2]; 1 µM, irradiation: 8 Gy/4 fr)	ISRE reporter ([2]; 1 µM, irradiation: none)	ISRE reporter ([2]; 3 µM, irradiation: 8 Gy/4 fr)	ISRE reporter ([2]; 3 µM, irradiation: none)	ISRE reporter ([2]; 10 µM, irradiation: 8 Gy/4 fr)	ISRE reporter ([2]; 10 µM, irradiation: none)
COC(=O)c1cc(OC)c2c(c1-c1c(C(=O)OC)cc(OC)c3c1OCO3)OCO2 [Bifendate]	0.802	1.23	0.842	1.08	0.744	1.11	1.04	0.752	0.943	0.735	0.826	1.21	0.819	0.989	0.766	0.983	1.11	0.903	1.02	0.656
COc1cc(OC)cc(N(CCNC(C)C)c2ccc3ncc(-c4cnn(C)c4)nc3c2)c1	1.02	1	0.766	1.04	0.872	1.32	0.864	1.19	0.943	0.921	0.76	0.763	0.793	0.944	0.845	1.22	0.893	1.31	1.06	1.07
Cc1ccc(C(=O)Nc2ccc(CN3CCN(C)CC3)c(C(F)(F)F)c2)cc1C#Cc1cnc2cccnn12	0.977	1.19	0.966	1.1	0.892	1.09	0.709	1.16	0.835	1.3	0.795	0.9	0.835	0.806	0.57	0.636	0.168	0.287	0.105	0.271
CC(C)C1C(=O)NC(CCCNC(=N)N)C(=O)NCC(=O)NC(CC(=O)O)C(=O)NC(Cc2ccccc2)C(=O)N1C.O=C(O)C(F)(F)F (stereo not given)	0.878	1.07	0.931	0.941	0.994	0.959	0.852	1.11	0.923	1.04	0.983	1.04	1.2	1.15	1.1	1.16	0.78	1.02	0.752	1.3
COC1CC2CCC(C)C(O)(O2)C(=O)C(=O)N2CCCCC2C(=O)OC(C(C)CC2CCC(OP(C)(C)=O)C(OC)C2)CC(=O)C(C)/C=C(\C)C(O)C(OC)C(=O)C(C)CC(C)/C=C/C=C/C=C/1C (stereo not given) [Ridaforolimus (Deforolimus, MK-8669)]	0.94	1.17	0.954	1.29	0.93	1.34	0.94	1.15	1.22	1.07	0.661	1.18	0.673	1.18	0.666	1.2	0.612	1.28	0.619	0.912
C[S+](C)CCC(N)C(=O)O.[Cl-] (stereo not given)	1.25	1.19	1.2	1.1	1.22	1.35	1.54	1.11	1.98	1.18	0.853	0.941	0.922	0.835	0.967	0.96	1.23	0.916	1.33	1.06
